The record followed here is patent US20230226146A1 (published 2023).

One experiment concerns the target T1, GDF11 (UniProt O95390 299-407).
T1 chain: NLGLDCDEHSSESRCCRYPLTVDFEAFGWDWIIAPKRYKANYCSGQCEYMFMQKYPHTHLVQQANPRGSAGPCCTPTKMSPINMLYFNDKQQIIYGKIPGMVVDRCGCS
The experiment is described as follows: Biacore SPR.

The target of another experiment is T2, activin A (UniProt P08476 311-426).
T2 chain: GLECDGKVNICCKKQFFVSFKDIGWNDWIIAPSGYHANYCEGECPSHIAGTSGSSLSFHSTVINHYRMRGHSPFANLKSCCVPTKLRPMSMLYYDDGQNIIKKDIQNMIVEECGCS
The experiment can be described thus: Biacore SPR.

B1: ActRIIA-hFc (Fc fusion)
chain: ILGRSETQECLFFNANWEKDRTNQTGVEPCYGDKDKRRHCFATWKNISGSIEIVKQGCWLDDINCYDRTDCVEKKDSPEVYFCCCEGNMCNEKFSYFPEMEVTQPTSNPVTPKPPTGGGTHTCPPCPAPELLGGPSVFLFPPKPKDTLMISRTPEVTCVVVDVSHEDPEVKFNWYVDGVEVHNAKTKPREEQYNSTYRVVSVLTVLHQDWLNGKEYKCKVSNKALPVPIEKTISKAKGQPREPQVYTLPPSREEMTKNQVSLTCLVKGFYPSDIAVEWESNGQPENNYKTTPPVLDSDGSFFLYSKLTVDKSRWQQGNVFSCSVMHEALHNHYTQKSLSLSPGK
Turning to B1, the Kd was 9.96 nM in the experiment with GDF11 and 0.005 nM with activin A.
